Reference: the supplement of paper PMC8728848
The list shows a part of the results.

Legend:
Assay in all cases: glycan array binding signal (z-score within array); higher = stronger binding
Details in all cases: glycan notation: IUPAC condensed, linker removed
[1] = molecular target: Neu5Ac(a2-3)Gal(b1-4)GlcNAc(b1-3)Gal(b1-4)GlcNAc(b1-3)Gal(b1-4)GlcNAc
How it was run: (§1)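 Glycan array data came from 3228 arrays in the Consortium for Functional Glycomics database, and only arrays with an available protein sequence were kept. Glycan names were put into IUPAC-condensed notation, and columns mapping to the same glycan were averaged. The binding signal is a within-array Z-score, averaged across arrays of one protein sequence run at different concentrations or buffers and across linkers. A negative Z-score can be read as non-binding.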

[2] = molecular target: Neu5Ac(a2-3)Gal(b1-4)GlcNAc(b1-3)Gal(b1-4)GlcNAc(b1-3)Gal(b1-4)GlcNAc(b1-2)Man(a1-3)[Neu5Ac(a2-3)Gal(b1-4)GlcNAc(b1-3)Gal(b1-4)GlcNAc(b1-3)Gal(b1-4)GlcNAc(b1-2)Man(a1-6)]GalNAc
How it was run: as §1

[3] = molecular target: Neu5Ac(a2-3)Gal(b1-4)GlcNAc(b1-3)Gal(b1-4)GlcNAc(b1-3)GalNAc
How it was run: as §1

[4] = molecular target: Neu5Ac(a2-3)Gal(b1-4)GlcNAc(b1-3)Gal(b1-4)GlcNAc(b1-3)[Neu5Ac(a2-3)Gal(b1-4)GlcNAc(b1-3)Gal(b1-4)GlcNAc(b1-6)]GalNAc
How it was run: as §1

[5] = molecular target: Neu5Ac(a2-3)Gal(b1-4)GlcNAc(b1-3)Gal(b1-4)GlcNAc(b1-6)[Gal(b1-3)]GalNAc
How it was run: as §1

[6] = molecular target: Neu5Ac(a2-3)Gal(b1-4)GlcNAc(b1-3)Gal(b1-4)[Fuc(a1-3)]GlcNAc
How it was run: as §1

[7] = molecular target: Neu5Ac(a2-3)Gal(b1-4)GlcNAc(b1-3)GalNAc
How it was run: as §1

[8] = molecular target: Neu5Ac(a2-3)Gal(b1-4)GlcNAc(b1-3)[Neu5Ac(a2-3)Gal(b1-4)GlcNAc(b1-6)]GalNAc
How it was run: as §1

[9] = molecular target: Neu5Ac(a2-3)Gal(b1-4)GlcNAc(b1-6)GalNAc
How it was run: as §1

[10] = molecular target: Neu5Ac(a2-3)Gal(b1-4)GlcNAc(b1-6)[Gal(b1-3)]GalNAc
How it was run: as §1

[11] = molecular target: Neu5Ac(a2-3)Gal(b1-4)GlcNAc(b1-6)[Neu5Ac(a2-3)Gal(b1-3)]GalNAc
How it was run: as §1

[12] = molecular target: Neu5Ac(a2-3)Gal(b1-4)GlcNAc6S
How it was run: as §1

[13] = molecular target: Neu5Ac(a2-3)Gal(b1-4)[Fuc(a1-3)]GlcNAc
How it was run: as §1

[14] = molecular target: Neu5Ac(a2-3)Gal(b1-4)[Fuc(a1-3)]GlcNAc(b1-2)Man
How it was run: as §1

[15] = molecular target: Neu5Ac(a2-3)Gal(b1-4)[Fuc(a1-3)]GlcNAc(b1-3)Gal
How it was run: as §1

[16] = molecular target: Neu5Ac(a2-3)Gal(b1-4)[Fuc(a1-3)]GlcNAc(b1-3)Gal(b1-4)GlcNAc
How it was run: as §1

[17] = molecular target: Neu5Ac(a2-3)Gal(b1-4)[Fuc(a1-3)]GlcNAc(b1-3)Gal(b1-4)[Fuc(a1-3)]GlcNAc(b1-3)Gal(b1-4)[Fuc(a1-3)]GlcNAc
How it was run: as §1

[18] = molecular target: Neu5Ac(a2-3)Gal(b1-4)[Fuc(a1-3)]GlcNAc(b1-3)GalNAc
How it was run: as §1

[19] = molecular target: Neu5Ac(a2-3)Gal(b1-4)[Fuc(a1-3)]GlcNAc(b1-6)[Gal(b1-3)]GalNAc
How it was run: as §1

[20] = molecular target: Neu5Ac(a2-3)Gal(b1-4)[Fuc(a1-3)]GlcNAc(b1-6)[Neu5Ac(a2-3)Gal(b1-3)]GalNAc
How it was run: as §1

[21] = molecular target: Neu5Ac(a2-3)Gal(b1-4)[Fuc(a1-3)]GlcNAc6S
How it was run: as §1

[22] = molecular target: Neu5Ac(a2-3)Gal6S(b1-4)GlcNAc
How it was run: as §1

[23] = molecular target: Neu5Ac(a2-3)Gal6S(b1-4)[Fuc(a1-3)]GlcNAc
How it was run: as §1

Neu5Ac(a2-3)GalNAc = molecular target: Neu5Ac(a2-3)GalNAc
How it was run: as §1

[24] = molecular target: Neu5Ac(a2-3)GalNAc(b1-4)GlcNAc
How it was run: as §1

[25] = molecular target: Neu5Ac(a2-3)[GalNAc(b1-4)]Gal(b1-4)Glc
How it was run: as §1

[26] = molecular target: Neu5Ac(a2-3)[GalNAc(b1-4)]Gal(b1-4)GlcNAc
How it was run: as §1

[27] = molecular target: Neu5Ac(a2-3)[GalNAc(b1-4)]Gal(b1-4)GlcNAc(b1-3)GalNAc
How it was run: as §1

[28] = molecular target: Neu5Ac(a2-3)[Neu5Ac(a2-6)]GalNAc
How it was run: as §1

Neu5Ac(a2-6)Gal = molecular target: Neu5Ac(a2-6)Gal
How it was run: as §1

[29] = molecular target: Neu5Ac(a2-6)Gal(b1-3)GlcNAc(b1-3)[Gal(b1-4)GlcNAc(b1-6)]Gal(b1-4)Glc
How it was run: as §1

Neu5Ac(a2-6)Gal(b1-4)Glc = molecular target: Neu5Ac(a2-6)Gal(b1-4)Glc
How it was run: as §1

[30] = molecular target: Neu5Ac(a2-6)Gal(b1-4)GlcNAc
How it was run: as §1

[31] = molecular target: Neu5Ac(a2-6)Gal(b1-4)GlcNAc(b1-2)Man
How it was run: as §1

[32] = molecular target: Neu5Ac(a2-6)Gal(b1-4)GlcNAc(b1-2)Man(a1-3)Man(b1-4)GlcNAc(b1-4)GlcNAc
How it was run: as §1

[33] = molecular target: Neu5Ac(a2-6)Gal(b1-4)GlcNAc(b1-2)Man(a1-3)[Gal(b1-4)GlcNAc(b1-2)Man(a1-6)]Man(b1-4)GlcNAc(b1-4)GlcNAc
How it was run: as §1

[34] = molecular target: Neu5Ac(a2-6)Gal(b1-4)GlcNAc(b1-2)Man(a1-3)[GlcNAc(b1-2)Man(a1-6)]Man(b1-4)GlcNAc(b1-4)GlcNAc
How it was run: as §1

[35] = molecular target: Neu5Ac(a2-6)Gal(b1-4)GlcNAc(b1-2)Man(a1-3)[GlcNAc(b1-4)][Neu5Ac(a2-6)Gal(b1-4)GlcNAc(b1-2)Man(a1-6)]Man(b1-4)GlcNAc(b1-4)GlcNAc
How it was run: as §1

B1: B160 (Bifidobacterium sp) (protein)
chain: MVSHNKRIVAALAAVAAMGIGLAGCGGSDTAGDTKSGSDGGVVNITYMHRLPDSEGMTLVNDIVAKWNKEHPNIQVKATKFDGNAADMIKKLETDVKAGNAPDLAQVGYAEVPEVFTKGLLQDVTDEAAKYKDDFASGPFALMQVDGKTYGLPQDTGPLTYFYNAAEFEKLGITVPKTADELIETAKKTAAQGKYIMTFTPDEAMMMMSGQAGASGPWYKVDGNSWVVNTQTKGSKAVADVYQQLIDNKAALTNPRWDASFDNSIQSGQLIGTVAAAWEAPLFIDSAGGTGAGEWKVTQLGDWFGNGTKTGANGGSGVAVLKGSKHPAEAMEFLDWFNTQVDDLVSQGLVVAATTADAKTPQKWSDYFSGQDVMAEFKTANDNMGDFTYMPGFSAVGAAMKQTAAKAADGSAKVSDVFDTAQKTSVDTLKNLGLSVKE
B1 was tested, and the “glycan array binding signal (z-score)” value [1] was -0.174, the “glycan array binding signal (z-score)” value [2] was -0.099 and the “glycan array binding signal (z-score)” value [3] was -0.179. The “glycan array binding signal (z-score)” value [4] was -0.107, the “glycan array binding signal (z-score)” value [5] was -0.181 and the “glycan array binding signal (z-score)” value [6] was -0.185. The “glycan array binding signal (z-score)” value [7] was -0.103, the “glycan array binding signal (z-score)” value [8] was -0.177 and the “glycan array binding signal (z-score)” value [9] was -0.15. The “glycan array binding signal (z-score)” value [10] was -0.184, the “glycan array binding signal (z-score)” value [11] was -0.185 and the “glycan array binding signal (z-score)” value [12] was -0.173. The “glycan array binding signal (z-score)” value [13] was -0.183, the “glycan array binding signal (z-score)” value [14] was -0.188 and the “glycan array binding signal (z-score)” value [15] was -0.168. For the same binder, the “glycan array binding signal (z-score)” value [16] was -0.165, the “glycan array binding signal (z-score)” value [17] was -0.167 and the “glycan array binding signal (z-score)” value [18] was -0.107. For the same binder, the “glycan array binding signal (z-score)” value [19] was -0.078, the “glycan array binding signal (z-score)” value [20] was -0.104 and the “glycan array binding signal (z-score)” value [21] was -0.175. The “glycan array binding signal (z-score)” value [22] was -0.177, the “glycan array binding signal (z-score)” value [23] was -0.16 and the “glycan array binding signal (z-score)” value (Neu5Ac(a2-3)GalNAc) was -0.156. The “glycan array binding signal (z-score)” value [24] was -0.174, the “glycan array binding signal (z-score)” value [25] was -0.155 and the “glycan array binding signal (z-score)” value [26] was -0.167. The “glycan array binding signal (z-score)” value [27] was -0.12, the “glycan array binding signal (z-score)” value [28] was -0.17 and the “glycan array binding signal (z-score)” value (Neu5Ac(a2-6)Gal) was -0.171. For the same binder, the “glycan array binding signal (z-score)” value [29] was -0.179, the “glycan array binding signal (z-score)” value (Neu5Ac(a2-6)Gal(b1-4)Glc) was -0.194 and the “glycan array binding signal (z-score)” value [30] was -0.179. For the same binder, the “glycan array binding signal (z-score)” value [31] was -0.162, the “glycan array binding signal (z-score)” value [32] was -0.145 and the “glycan array binding signal (z-score)” value [33] was -0.158. For the same binder, the “glycan array binding signal (z-score)” value [34] was -0.168 and the “glycan array binding signal (z-score)” value [35] was -0.167.
